Measured values from the supplement of paper PMC6089552.
Hit rate of the full screen: of about 3,200 compounds, about 300 (9.4%) showed activity. This is a selection; strong and weak results do not stand in their true shares.

System: A673/TR/shEF
Assay: cell viability (LOESS-normalised, relative to median of negative controls) (log2 ratio); higher = more viable cells (less compound effect), active = hit call of the paper (over 3 MAD below the median)
Details: treatment time: 72 h
Method in brief: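 A673/TR/shEF Ewing sarcoma cells (1,500 per well, 384-well plates) were grown with or without doxycycline to induce EWS-FLI1 shRNA knockdown, starting 24 h before compounds. Library compounds at two or more concentrations, with DMSO controls, were added for three days. Cell viability was read by CellTiter-Glo luminescence on an Envision reader, then LOESS-corrected per plate, divided by the median of negative controls and log2-transformed. Hits were wells at least three median absolute deviations from the median of all screened wells.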

[1] = 0.103 µM, library screen: screen3, EWS-FLI1 expression: high (no doxycycline)
[2] = 0.103 µM, library screen: screen3, EWS-FLI1 expression: low (doxycycline-induced shRNA knockdown)
[3] = 0.25 µM, library screen: screen1, EWS-FLI1 expression: high (no doxycycline)
[4] = 0.25 µM, library screen: screen1, EWS-FLI1 expression: low (doxycycline-induced shRNA knockdown)
[5] = 0.25 µM, library screen: screen2, EWS-FLI1 expression: high (no doxycycline)
[6] = 0.25 µM, library screen: screen2, EWS-FLI1 expression: low (doxycycline-induced shRNA knockdown)
[7] = 0.308 µM, library screen: screen3, EWS-FLI1 expression: high (no doxycycline)
[8] = 0.308 µM, library screen: screen3, EWS-FLI1 expression: low (doxycycline-induced shRNA knockdown)
[9] = 0.926 µM, library screen: screen3, EWS-FLI1 expression: high (no doxycycline)
[10] = 0.926 µM, library screen: screen3, EWS-FLI1 expression: low (doxycycline-induced shRNA knockdown)
[11] = 2.5 µM, library screen: screen1, EWS-FLI1 expression: high (no doxycycline)
[12] = 2.5 µM, library screen: screen1, EWS-FLI1 expression: low (doxycycline-induced shRNA knockdown)
[13] = 2.5 µM, library screen: screen2, EWS-FLI1 expression: high (no doxycycline)
[14] = 2.5 µM, library screen: screen2, EWS-FLI1 expression: low (doxycycline-induced shRNA knockdown)
[15] = 2.8 µM, library screen: screen3, EWS-FLI1 expression: high (no doxycycline)
[16] = 2.8 µM, library screen: screen3, EWS-FLI1 expression: low (doxycycline-induced shRNA knockdown)
[17] = 8.3 µM, library screen: screen3, EWS-FLI1 expression: high (no doxycycline)
[18] = 8.3 µM, library screen: screen3, EWS-FLI1 expression: low (doxycycline-induced shRNA knockdown)
[19] = 25 µM, library screen: screen3, EWS-FLI1 expression: high (no doxycycline)
[20] = 25 µM, library screen: screen3, EWS-FLI1 expression: low (doxycycline-induced shRNA knockdown)

Measured: cell viability (log2)

CC(C)NCC(O)c1ccc(O)c(O)c1 (stereo not drawn)
inactive: [1] 0.0337 | [2] 0.0393 | [3] 0.165 | [4] 0.0305 | [5] 0.153 | [6] 0.0891 | [7] 0.0675 | [8] 0.099 | [9] 0.0632 | [10] 0.115 | [11] 0.207 | [12] 0.113 | [13] 0.117 | [14] 0.0246 | [15] 0.0893 | [16] 0.006 | [17] 0.0355 | [18] 0.0704 | [19] -0.0428 | [20] -0.0137

COc1c(N2C[C@@H]3CCCN[C@@H]3C2)c(F)cc2c(=O)c(C(=O)O)cn(C3CC3)c12
inactive: [1] 0.00217 | [2] 0.0476 | [3] 0.076 | [4] 0.0797 | [7] 0.0186 | [8] 0.0131 | [9] 0.0161 | [10] 0.0509 | [11] 0.147 | [12] 0.0675 | [15] 0.0634 | [16] 0.0526 | [17] -0.0149 | [18] 0.05 | [19] 0.0823 | [20] 0.0467

COc1ccc(C(=O)c2ccccc2)c(O)c1
inactive: [3] 0.0945 | [4] 0.105 | [11] 0.159 | [12] 0.225

COc1ccc(C(=O)CC(=O)c2ccc(C(C)(C)C)cc2)cc1
inactive: [3] 0.117 | [4] 0.0122 | [11] 0.133 | [12] -0.0201

Cc1ccc(C(C)C)c(O)c1C(=O)O
inactive: [3] 0.112 | [4] 0.00973 | [11] 0.164 | [12] 0.0715

CCCC1O[C@@H]2C[C@H]3[C@@H]4CCC5=CC(=O)C=C[C@]5(C)[C@H]4[C@@H](O)C[C@]3(C)[C@]2(C(=O)CO)O1 (stereo partly drawn)
inactive: [1] 0.0449 | [2] 0.0616 | [3] 0.142 | [4] 0.024 | [5] 0.237 | [6] 0.0675 | [7] 0.111 | [8] 0.07 | [9] 0.126 | [10] 0.0826 | [11] 0.133 | [12] 0.112 | [13] 0.164 | [14] 0.106 | [15] 0.0485 | [16] 0.156 | [17] 0.0523 | [18] 0.0811 | [19] 0.0554 | [20] 0.107

COc1cc(C(C)=O)ccc1OCCCN1CCC(c2noc3cc(F)ccc23)CC1
inactive: [1] 0.0657 | [2] 0.0535 | [7] 0.0227 | [8] 0.0553 | [9] 0.0575 | [10] 0.0415 | [15] 0.0423 | [16] 0.0146 | [17] -0.00637 | [18] 0.0589 | [19] 0.0452 | [20] 0.0492

CCCCCCCCCCCCCCCCCCOCC(COP(=O)([O-])OCC[N+](C)(C)C)OC (stereo not drawn)
inactive: [5] 0.195 | [6] 0.168 | [13] 0.13 | [14] 0.0442

CC(C)c1c(O)ccc2c1CC[C@H]1C(C)(C)CCC[C@]21C
inactive: [3] 0.0946 | [4] 0.115 | [11] 0.166 | [12] 0.269

O=C(NCC1CCCO1)c1cc(-c2ccccc2)nc2ccccc12 (stereo not drawn)
inactive: [3] 0.0071 | [4] 0.138 | [11] 0.132 | [12] 0.0289

COC(=O)c1c(C)[nH]c(C)c1C(=O)c1ccccc1Cc1ccccc1
inactive: [5] 0.144 | [6] 0.111 | [13] 0.0878 | [14] 0.0692

O=C1O/C(=C/Br)CCC1c1cccc2ccccc12 (stereo not drawn)
inactive: [5] 0.145 | [6] 0.144 | [13] 0.118 | [14] 0.163

Nc1nc(N)c2nc(CNc3ccc(C(=O)N[C@@H](CCC(=O)O)C(=O)O)cc3)cnc2n1
active: [3] -1.62 | [4] -0.186
inactive: [5] 0.137 | [6] 0.126 | [11] 0.122 | [12] 0.141 | [13] 0.123 | [14] 0.134

CC(C(=O)O)c1cccc(C(=O)c2ccccc2)c1 (stereo not drawn)
inactive: [1] 0.106 | [2] 0.0412 | [3] 0.12 | [4] -0.0201 | [5] 0.204 | [6] 0.13 | [7] 0.093 | [8] 0.102 | [9] 0.0295 | [10] 0.058 | [11] 0.103 | [12] 0.0158 | [13] 0.122 | [14] 0.173 | [15] 0.145 | [16] 0.11 | [17] 0.0932 | [18] 0.0536 | [19] 0.0365 | [20] 0.131

CC1=C(C(=O)Nc2cc3cn[nH]c3cc2F)C(c2ccc(C(F)(F)F)cc2)CC(=O)N1 (stereo not drawn)
inactive: [1] 0.104 | [2] 0.079 | [7] -0.014 | [8] 0.0534 | [9] 0.0879 | [10] 0.0725 | [15] 0.103 | [16] 0.0173 | [17] 0.106 | [18] 0.0222 | [19] 0.0646 | [20] -0.122

O=NN(CCCl)C(=O)NCCCl
inactive: 0.025 µM, library screen: screen2, EWS-FLI1 expression: high (no doxycycline) 0.0358 | 0.025 µM, library screen: screen2, EWS-FLI1 expression: low (doxycycline-induced shRNA knockdown) -0.0301 | [3] 0.0968 | [4] 0.0497 | [5] 0.0788 | [6] 0.0584 | [11] 0.0465 | [12] 0.027 | [13] 0.0723 | [14] 0.0689 | 25 µM, library screen: screen2, EWS-FLI1 expression: high (no doxycycline) 0.0128 | 25 µM, library screen: screen2, EWS-FLI1 expression: low (doxycycline-induced shRNA knockdown) -0.00633

CCOC(=O)c1ncn2c1CN(C)C(=O)c1cc(F)ccc1-2
inactive: [1] 0.0569 | [2] 0.0805 | [5] 0.174 | [6] 0.0381 | [7] 0.0974 | [8] 0.058 | [9] 0.178 | [10] 0.0677 | [13] 0.062 | [14] -0.0188 | [15] 0.109 | [16] 0.099 | [17] 0.153 | [18] 0.0626 | [19] 0.132 | [20] 0.1
